# Reference: PMC4336329 (PLoS ONE, 2015)
# Screen size: about 310,000 compounds; about 14,000 (4.5%) showed an effect of 50% or more. Effects have a minus sign here. The list shows a part of the results.
# Target: human ether-à-go-go-related gene (hERG) potassium channel (human, UniProt Q12809)
# Test: primary screen, population patch clamp on CHO cells stably expressing hERG
# 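Note: peak tail current of the secondary pulse compared with the same well before compound.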
# Sequence of human ether-à-go-go-related gene (hERG) potassium channel (Q12809 whole entry, looked up): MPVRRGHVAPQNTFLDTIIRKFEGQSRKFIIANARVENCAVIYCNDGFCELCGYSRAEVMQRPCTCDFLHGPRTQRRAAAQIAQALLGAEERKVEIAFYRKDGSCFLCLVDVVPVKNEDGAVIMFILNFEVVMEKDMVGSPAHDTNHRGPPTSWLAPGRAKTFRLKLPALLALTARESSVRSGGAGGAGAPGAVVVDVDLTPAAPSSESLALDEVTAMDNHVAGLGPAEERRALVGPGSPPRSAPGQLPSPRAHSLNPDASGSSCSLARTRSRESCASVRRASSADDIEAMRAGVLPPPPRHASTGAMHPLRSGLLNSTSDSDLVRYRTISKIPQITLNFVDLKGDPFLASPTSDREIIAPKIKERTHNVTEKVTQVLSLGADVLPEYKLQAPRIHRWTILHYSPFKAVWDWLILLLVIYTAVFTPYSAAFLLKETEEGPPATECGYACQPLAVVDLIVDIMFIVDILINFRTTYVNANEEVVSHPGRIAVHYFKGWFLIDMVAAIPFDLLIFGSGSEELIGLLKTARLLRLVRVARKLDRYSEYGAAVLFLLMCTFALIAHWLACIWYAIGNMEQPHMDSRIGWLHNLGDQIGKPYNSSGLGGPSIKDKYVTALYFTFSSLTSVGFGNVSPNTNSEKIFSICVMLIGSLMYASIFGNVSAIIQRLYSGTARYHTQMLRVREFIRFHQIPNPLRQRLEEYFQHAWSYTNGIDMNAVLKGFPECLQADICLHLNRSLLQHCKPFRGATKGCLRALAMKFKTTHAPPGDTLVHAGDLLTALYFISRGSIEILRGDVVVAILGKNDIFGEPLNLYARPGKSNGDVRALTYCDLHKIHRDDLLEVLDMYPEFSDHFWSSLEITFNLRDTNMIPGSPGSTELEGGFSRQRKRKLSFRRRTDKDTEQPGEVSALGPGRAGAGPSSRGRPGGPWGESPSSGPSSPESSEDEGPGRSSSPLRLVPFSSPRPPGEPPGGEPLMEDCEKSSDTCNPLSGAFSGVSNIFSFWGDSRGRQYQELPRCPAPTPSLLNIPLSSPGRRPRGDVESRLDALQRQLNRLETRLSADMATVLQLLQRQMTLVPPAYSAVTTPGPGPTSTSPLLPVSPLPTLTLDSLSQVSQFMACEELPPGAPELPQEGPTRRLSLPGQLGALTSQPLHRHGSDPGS
row,SMILES,"hERG current change (%, negative = inhibition) at 10uM [%]"
1,CCN(Cc1ccccc1)C(=O)c1ccc(SC)cc1OC,4.25
2,Cc1cc(F)ccc1S(=O)(=O)N1CCCOC1CNC(=O)C(=O)NC1CCCC1 (stereo not shown),-7.66
3,C[C@@H](NC(=O)c1nc[nH]c1C(=O)NCc1ccccc1)c1ccccc1,9.81
4,CC(=O)c1ccc(N2CCN(C(=O)c3cccc(Oc4ccccc4)c3)CC2)cc1,-42.1
5,O=C(CCN1CCCCC1)NCC(=O)Nc1ccc(Br)cc1C(=O)c1ccccc1,-77.6
6,O=C(c1cc(-c2ccc(Cl)cc2Cl)on1)N1CCCC1,-0.203
7,NC(=O)c1ccc(C(=O)N/N=C/c2cccc(Oc3ccccc3)c2)cc1,1.42
8,CNC(=S)NNC(=O)c1ccccc1F,11.4
9,CC(C)c1ccc(/C=C(\NC(=O)c2ccccc2)C(=O)NCCCN2CCOCC2)cc1,-71.4
10,CC(C)[C@H](NC(=O)N1C[C@H]2C[C@@H](C1)c1cccc(=O)n1C2)C(=O)Nc1ccccc1F,13.5
11,O=S1(=O)CCOC[C@H](Cc2ccccc2)N1Cc1ccc(F)cc1,-32.9
12,Cc1nc(SCc2cccc(Oc3ccccc3)c2)n[nH]1,-21.5
13,CCCCCN(C(=O)COC(=O)c1ccc(C)cc1)c1c(N)n(CCCC)c(=O)[nH]c1=O,-4.65
14,Cc1ccccc1-n1c(=O)c(C#N)cc2c(=O)n3ccccc3nc21,-25.4
15,CC(=O)Nc1ccc(Oc2ccc(NC(C)=O)c(NC(C)=O)c2)cc1,1.5
16,Cc1cccn2c(=O)nc(SCC(=O)Nc3ccc4c(c3)OCCO4)nc12,-11.2
17,CN(CCC1CCOCC1)C(=O)C1CCC(=O)N(CCc2cccc(F)c2)C1 (stereo not shown),12
18,Cc1ccc(CCN2CC(C(=O)NC3CCCCC3)CC2=O)cc1 (stereo not shown),-12.9
19,CCc1c(C)[nH]n(-c2ccc(Oc3ccccc3)c(S(=O)(=O)O)c2)c1=O,20.5
20,O=C(NC1CC1)c1cccc(S(=O)(=O)Nc2ccccc2F)c1,0.0966
21,Cc1ccc2cc(CCNC(=O)Cc3cccs3)c(=O)[nH]c2c1,-8.14
22,Cc1cccnc1NC(=O)c1ccc(OCC2CCCO2)cc1 (stereo not shown),15.9

row,SMILES,"hERG current change (%, negative = inhibition) at 10uM [%]"
1,C/C=C\C(=O)Nc1cccc(C2=NOC3(C2)C[C@H](C(N)=O)N(C(=O)/C=C/CC)C3)c1 (stereo partly shown),12.7
2,CC(C)c1ccc(NC(=O)CCNC(=O)N2CC(=O)Nc3ccccc32)cc1,14.5
3,O=C(c1ccncc1)N1N=C(C2CC2)CC1(O)C(F)(F)F (stereo not shown),6.56
4,Nc1nc2ccccc2n1CCOc1ccccc1Cl,-3.5
5,O=C(CSc1ccc(F)cc1)NC12CC3CC(CC(C3)C1)C2,-1.29
6,Cn1c(SC2CCCCC2=O)nnc1-c1ccccc1F (stereo not shown),9.45
7,NC(=O)C1CCN(C(=O)c2ccc(-c3ccccc3)cc2)CC1,1.72
8,Cc1nn(-c2ccccc2)c(N)c1N=O,15.4
9,COc1ccc(-c2c(C)nn3c(C)cc(C)nc23)cc1,5.87
10,CCCNC(=O)c1ccc(N2CCC3(CC2)CC(c2ccccc2)=NO3)c(NC(=O)c2ccc(Br)cc2)c1,-1.91
11,COc1ccc(Cc2nnc(SCC(=O)N3CCCCC3)o2)cc1,3.78
12,CCCNC(=O)NC(C)C12CC3CC(CC(C3)C1)C2 (stereo not shown),-12.6
13,Nc1nc(SCC(=O)Nc2ccc(S(N)(=O)=O)cc2)n[nH]1,17.8
14,c1ccc2nc(N3CCN(Cc4ccc5c(c4)OCO5)CC3)cnc2c1,-28.5
15,CN1C(=O)C(C)(C)c2cc(S(=O)(=O)N3CCN(c4ccccc4F)CC3)ccc21,-3.03
16,Cc1ccc(S(=O)(=O)CCc2nc3ccccc3n2CCC#N)cc1,-5.05
17,Cc1nc2scc(C)n2c(=O)c1S(=O)(=O)Nc1ccc(F)cc1,-22.8
18,CC(C)(C)OC(=O)N1CCC(Cc2cc(-c3cccc(Br)c3)no2)(C(=O)O)CC1,-23.5
19,Cc1ccc(NNC(=O)c2c(C)noc2C)cc1Cl,-1.34
20,COc1ccc(-c2nc(CNS(=O)(=O)c3ccc(OC)c(OC)c3)cs2)cc1,-1.76
21,Cc1ccc(CNC(=O)C2(C(F)(F)F)C/C(=C\Cc3ccccc3)CCCO2)o1 (stereo not shown),11.8
22,O=C(CCCCn1c(=O)c2ccccc2n(CC(=O)Nc2ccc(F)cc2)c1=O)NCc1ccco1,-19.7

row,SMILES,"hERG current change (%, negative = inhibition) at 10uM [%]"
1,CN(C)c1ccc(N/C(=N\S(=O)(=O)c2cccs2)c2ccccc2)cc1.Cl,-30.5
2,N#Cc1c(-c2ccc(Cl)cc2)cc(-c2ccccc2)nc1SCC(=O)O,15.3
3,Cc1cc(Nc2nnnn2-c2ccccc2)n(-c2ccc(Cl)cc2)n1,19.3
4,CC(C)Sc1nnc(CNC(=O)C23CC4CC(CC(C4)C2)C3)n1C1CCCCC1,-9.93
5,COc1cc(/C=N/NC(=O)CN2CCCCC2)ccc1OCc1ccccc1,-64.1
6,Cc1ccc(C)c(-n2c(=O)c(C#N)cc3c(=O)n4ccccc4nc32)c1,30.5
7,COc1cc(C)nc(N(C)C(C)=O)n1,4.82
8,O=C(CSc1ccccc1F)Nc1ccc(N2CCOCC2)cc1,3.82
9,Cc1[nH]ccc(=O)c1OCc1c(Cl)cccc1Cl,10.5
10,CN(C)CCN(C(=O)c1ccc2ccccc2c1)c1nc2c(F)cc(F)cc2s1.Cl,3.41
11,COc1ccccc1NC(=O)c1nnn(Cc2ccccc2)c1NC(=O)C(F)(F)F,-53
12,Cc1ccc(OCC(=O)NCc2ccccc2)c([N+](=O)[O-])n1,-15
13,CCNC(=O)COC(=O)c1cc(S(=O)(=O)N2CCCCC2)ccc1C,-4.25
14,CNC(=O)Oc1ccc2c(c1)[C@]1(C)CCN(C)C1N2C.O=C(O)c1ccccc1O (stereo partly shown),10.7
15,O=C(Cc1ccc(Cl)cc1)Nc1ccc(SC(F)F)cc1,-1.83
16,CCC(C)(C)NC(=O)C1CCN(c2nc(OC)nc(OC)n2)CC1,2.14
17,Cc1occc1C(=O)Nc1ccc(Br)cc1F,2.03
18,CC(=O)NN1C(=O)c2ccccc2NC1c1ccccc1 (stereo not shown),10.9
19,CCc1nnc(NC(=O)CSCc2cc(=O)n3nc(C(C)C)sc3n2)s1,8.88
20,COc1ccc(S(=O)(=O)N2CCSC2c2ccc(N)cc2)cc1 (stereo not shown),-12
21,CCOc1ccc(N2C(=O)CC(N3CCN(C(=O)CN4CCCC4)CC3)C2=O)cc1 (stereo not shown),13.9
22,O=S(=O)(Nc1ccc(-n2cccc2)cc1)c1ccccc1,5.82

row,SMILES,"hERG current change (%, negative = inhibition) at 10uM [%]"
1,CN(C)c1ccnc(-n2cccc2/C=N/OCc2cccc(F)c2)c1C#N,-18.9
2,C=CCN(c1ccc(C(=O)Nc2cccc(C)c2)cc1)S(C)(=O)=O,-9.66
3,CC(C)(C)NC(=O)c1nc2nc(-c3ccccc3)cc(C(F)(F)F)n2n1,14.5
4,N#Cc1c(-c2ccncc2)c2c([nH]c1=S)CCCC2,9.16
5,O=C(COc1ccc(Br)cc1)N1CCN(c2ccccc2)CC1,-33.7
6,COc1cc(C2Nc3ccccc3NC3=C2C(=O)CC(c2ccc(OC)c(OC)c2)C3)ccc1O (stereo not shown),4.86
7,CCOC(=O)C(C)N1C(=O)S/C(=C/c2ccc3c(c2)n(C)c(=O)n3C)C1=O (stereo not shown),-26.8
8,CN1CCN(C(=O)O[C@H]2c3nccnc3C(=O)N2c2ccc(Cl)cn2)CC1,7.74
9,CCc1nn(CC(=O)NCCCN2CCN(C)CC2)c(=O)c2cc3sccc3n12,7.04
10,O=C(Cn1cc([N+](=O)[O-])nc1[N+](=O)[O-])N1CCN(c2ccccc2)CC1,-8.46
11,O=C(NNc1c(Cl)cccc1Cl)c1sccc1Cl,1.12
12,CN1C(=O)NC(c2cccc([N+](=O)[O-])c2)C2=C1CCCC2=O (stereo not shown),9.95
13,Cc1onc(-c2ccccc2Cl)c1C(=O)NNC(=O)c1ccccc1F,23.2
14,CN(CC(=O)NNC(=O)CNC(=O)c1cccs1)S(=O)(=O)c1ccc(Cl)cc1,4.41
15,S=c1[nH]nc(-c2cccc(Br)c2)o1,19.6
16,Cc1ccc(SCC(=O)Nc2cccc(S(=O)(=O)N3CCOCC3)c2)cc1C,-2.37
17,Cc1ccc(S(=O)(=O)Nc2ccc(S(=O)(=O)N3CCOCC3)cc2)cc1[N+](=O)[O-],15.3
18,CCc1ccc2nc(N3CCN(C(=O)C(C)(C)C)CC3)sc2c1,-16.8
19,Nc1nonc1-n1nncc1-c1ccccc1,1.98
20,COc1ccc(C(=O)NC(=S)Nc2ccc(CN3CCOCC3)cc2)cc1Cl,4.58
21,O=C(NCCc1ccc(F)cc1)C1CCN(C(=O)Nc2ccccc2)CC1,-12.5
22,CCOc1ccc(NCCC(=O)c2ccc3c(c2)OCO3)cc1,-5.36
